Article PMC4336329 (PLoS ONE, 2015)
In all, about 310,000 compounds went through this assay and about 2,200 (0.71%) showed an effect of 50% or more. The effect is printed as a negative number. This is one part of the list.

Target: human ether-à-go-go-related gene (hERG) potassium channel (human, UniProt Q12809)
Assay: primary screen, population patch clamp on CHO cells stably expressing hERG

Chain of human ether-à-go-go-related gene (hERG) potassium channel (Q12809 whole entry, looked up): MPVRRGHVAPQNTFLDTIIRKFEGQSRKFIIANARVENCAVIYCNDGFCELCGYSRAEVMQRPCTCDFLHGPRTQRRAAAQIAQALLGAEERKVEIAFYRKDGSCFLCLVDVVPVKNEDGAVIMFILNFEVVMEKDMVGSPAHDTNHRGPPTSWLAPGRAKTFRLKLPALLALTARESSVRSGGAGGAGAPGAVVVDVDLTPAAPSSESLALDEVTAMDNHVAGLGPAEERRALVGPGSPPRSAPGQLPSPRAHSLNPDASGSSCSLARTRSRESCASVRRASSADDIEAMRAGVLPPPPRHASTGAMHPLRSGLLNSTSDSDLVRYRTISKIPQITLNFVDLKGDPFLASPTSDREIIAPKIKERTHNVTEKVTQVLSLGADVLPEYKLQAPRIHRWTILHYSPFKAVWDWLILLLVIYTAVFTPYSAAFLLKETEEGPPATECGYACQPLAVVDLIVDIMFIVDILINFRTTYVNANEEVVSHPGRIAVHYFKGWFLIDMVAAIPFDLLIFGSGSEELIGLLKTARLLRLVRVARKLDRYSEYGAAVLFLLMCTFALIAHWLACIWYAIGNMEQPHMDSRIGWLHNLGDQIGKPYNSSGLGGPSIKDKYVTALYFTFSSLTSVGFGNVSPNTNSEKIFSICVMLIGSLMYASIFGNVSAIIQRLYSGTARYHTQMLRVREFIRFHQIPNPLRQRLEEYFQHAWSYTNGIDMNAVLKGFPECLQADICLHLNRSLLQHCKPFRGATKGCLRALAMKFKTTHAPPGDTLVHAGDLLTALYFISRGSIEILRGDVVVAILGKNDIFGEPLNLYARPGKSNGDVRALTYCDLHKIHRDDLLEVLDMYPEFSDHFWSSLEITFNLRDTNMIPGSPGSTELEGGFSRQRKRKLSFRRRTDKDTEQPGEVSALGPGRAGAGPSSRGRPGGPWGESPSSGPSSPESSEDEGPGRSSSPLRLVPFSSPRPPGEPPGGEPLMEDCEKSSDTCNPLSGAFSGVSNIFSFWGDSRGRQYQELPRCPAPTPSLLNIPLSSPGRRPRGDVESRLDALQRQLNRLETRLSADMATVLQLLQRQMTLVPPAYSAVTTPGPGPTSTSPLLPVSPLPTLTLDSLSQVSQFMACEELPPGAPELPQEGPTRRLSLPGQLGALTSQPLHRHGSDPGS

| SMILES | hERG current change (%, negative = inhibition) at 1uM [%] |
| --- | --- |
| Cc1nn(-c2ccccc2)c(N)c1Sc1ccc([N+](=O)[O-])cc1 | -16.3 |
| COCCNC(=O)COc1ncnc2ccc(Br)cc12 | 7.06 |
| CCN1C(=O)N[C@H](c2ccc(Br)cc2)C(C(=O)OC)=C1C | 12.6 |
| O=C(NNC(=O)C12CC3CC(CC(O)(C3)C1)C2)c1csc(N2CCOCC2)n1 | 15.6 |
| CCc1cc2c(N3CCCCC3)ncnc2s1.Cl | 5.54 |
| CCOC(=O)c1ccc(N=c2sc(C(=O)OC)cc(=O)n2Cc2ccc3c(c2)OCO3)cc1 | 13.5 |
| Cc1c(C(=O)N2CCC(Cc3ccccc3)CC2)cccc1[N+](=O)[O-] | 1.11 |
| COc1ccc(OCC2CCCN(Cc3nc(CC4CC4)no3)C2)cc1 (centres unmarked) | -0.786 |
| O=C(c1ccc2ccccc2c1)C1CCCN(C(=O)CCn2cnnn2)C1 (centres unmarked) | 3.91 |
| CC1CCN(c2oc(-c3ccccc3F)nc2C#N)CC1 | 0.0562 |
| C=CCn1c(CCNC(=O)c2cccs2)nnc1SCC(=O)Nc1cccc(F)c1 | -9.74 |
| Cc1ccc(NS(=O)(=O)c2c(C)nc3sccn3c2=O)cc1 | 0.642 |
| O=C(O)C1CCCCC1C(=O)NCCc1c[nH]c2ccccc12 (centres unmarked) | 13.5 |
| COC(=O)c1ccc(N2CCOCC2)c(NC(=O)c2ccc3c(c2)OCCO3)c1 | 6.75 |
| C=CCn1nnc2sc3c(c2c1=O)CCC(C)C3 (centres unmarked) | 17.8 |
| Cc1c(NS(=O)(=O)c2cccc(C(=O)NCc3ccccc3)c2)c(=O)n(-c2ccccc2)n1C | 12.4 |
| O=C(N/N=C/c1ccc(Cl)c([N+](=O)[O-])c1)c1cc(-c2ccc3c4c(cccc24)CC3)n[nH]1 | 8.79 |
| COc1ccc(NC(=O)C(=O)NNC(=O)c2cccs2)c(OC)c1 | 5.07 |
| CC(C)CNC(=O)CSc1nc2scc(-c3ccccc3)c2c(=O)[nH]1 | 2.46 |

| SMILES | hERG current change (%, negative = inhibition) at 1uM [%] |
| --- | --- |
| CCOC(=O)/C(C#N)=C/c1c(N2CCN(C)CC2)nc2ccccn2c1=O | 10.3 |
| CCn1c(Cc2ccccc2)nnc1SCC(=O)NC1CC1 | 17.3 |
| O=C(Cn1cc2c(n1)CCCC2)N1CCc2ccccc21 | 0.242 |
| Cc1nc(Nc2ccc(Cl)cc2Cl)sc1C(=O)Nc1ccccc1 | 7.93 |
| CS(=O)(=O)c1ccc(Cl)c(NC(=O)C2CC(=O)N(Cc3ccccc3)C2)c1 (centres unmarked) | 1.34 |
| O=C(OCCN1C(=O)c2ccccc2C1=O)C1CC(O)CN1S(=O)(=O)c1ccc(Cl)cc1 (centres unmarked) | 7.01 |
| CCOC(=O)C1=C(CSc2nc3ccccc3s2)NC(=O)NC1c1ccc(OC)cc1 (centres unmarked) | 14.3 |
| O=C1CCCN1c1ccc(S(=O)(=O)N2CCN(c3ccccn3)CC2)cc1 | 14.8 |
| Cc1ccc(-c2nn(-c3ccccc3)cc2CN(Cc2ccccc2)C(=O)c2ccco2)o1 | 0.914 |
| COc1cccc(/C=N/n2cnc3c(cnn3-c3ccccc3)c2=O)c1 | 10.9 |
| Cc1cc(/C=N/N2CCN(C)CC2)c(C)n1-c1ccccc1F | 8.21 |
| C=CCN1C(=O)C(O)(CC(=O)c2ccc(Cl)cc2)c2ccccc21 (centres unmarked) | 15.5 |
| CCOC(=O)c1ccc(NC(=O)N2CCOCC2)cc1 | 11.2 |
| CCOC(=O)C(=O)NNc1ccccc1C | 1.85 |
| COc1ccccc1CN1CCN(C(c2ccccc2)c2ccccc2)CC1.O=C(O)C(=O)O | -13.6 |
| CC(OC(=O)c1ccc(Cl)nc1)C(=O)NC(C)(C)C (centres unmarked) | 12.2 |
| O=C(CN(C(=O)c1ccccc1Cl)N1C(=O)C2C3C=CC(C3)C2C1=O)c1cccs1 (centres unmarked) | 6.38 |
| c1ccc(OCc2nn3c(Cn4nnc5ccccc54)nnc3s2)cc1 | -7.64 |
| O=C(O)C1C2CCC(O2)C1C(=O)NCc1ccccc1Br (centres unmarked) | 17.4 |

| SMILES | hERG current change (%, negative = inhibition) at 1uM [%] |
| --- | --- |
| CCOc1ccccc1N1C(=O)CC(Sc2nccc(C)n2)C1=O (centres unmarked) | 12.3 |
| COc1ccc(C2Nc3ccccc3C(=O)N2Cc2ccco2)cc1COc1ccc(NC(C)=O)cc1 (centres unmarked) | 9.08 |
| COc1cc(SC#N)ccc1N=Cc1c(C)[nH]n(-c2ccc(C)c(C)c2)c1=O | 1.25 |
| Cc1cc(C(F)(F)F)n(-c2nc(C(=O)Nc3cccnc3)cs2)n1 | 2.7 |
| Cc1ccc(N=Cc2cc(Br)cc(Cl)c2O)cc1 | 4.37 |
| Cc1ccc(NCc2nc(SCC(=O)Nc3ccccc3)n[nH]2)cc1 | 20 |
| CCOC(=O)N1CCC(Nc2ncnc3c2cnn3-c2ccccc2)CC1 | 4.01 |
| CCOC(=O)CSc1nc(-c2ccc3c(c2)OCO3)ccc1C#N | 6.46 |
| Cn1cc(C(=O)c2ccc(Cl)cc2)cc1-c1nc2ccccc2n1C | 0.332 |
| COc1ccccc1CNC(=O)CCc1nc2ccccc2c(=O)[nH]1 | 4.98 |
| CSc1ccc(/C=N/NC(=O)COc2ccc(Br)cc2Cl)cc1 | 13 |
| O=C(/C=C/c1ccc(F)cc1)NC(Cc1c[nH]c2ccccc12)C(=O)O (centres unmarked) | 8.41 |
| O=c1c2ccccc2sn1-c1cc(S(=O)(=O)N2CCOCC2)ccc1N1CCCC1 | 7.15 |
| CC1CC2(CCCC2)N(C(=O)N(C)C)c2ccc(F)cc21 (centres unmarked) | 10.1 |
| O=Cc1ccccc1OCCN1CCCC1=O | 9.45 |
| COc1ccccc1CNC(=O)c1cn(C)c2ccc(S(=O)(=O)N3CCCCC3)cc2c1=O | 14.1 |
| CN(C)S(=O)(=O)c1ccc(C(=O)NCc2nnc(SCC(=O)N3CCCCCC3)o2)cc1 | 14.8 |
| CCOC(=O)C1=C(c2ccc(OC)cc2)C(=O)c2ccccc2C1=O | 15.6 |
